Test results published in the supplement of paper PMC4723716.
“And” between values parts separate entries of the source, which are not always exact repeats. Identical values can stand only once. ± gives the uncertainty stated by the source. Whole data set: some 9,900 compounds, median “viability index relative to DMSO control” near 1, cut for the lowest 2% near 0.85. The list shows a part of the results.

Tested on: Plasmodium falciparum NF54 stage V gametocytes
Experiment: viability index relative to DMSO control (fraction); higher = less gametocyte killing
Conditions: 2.5 µM, library set: Broad Institute DOS, incubation time: 72 h
Method: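 Broad DOS informer set and blood-stage-active DOS compounds screened in duplicate at 2.5 µM against P. falciparum NF54 stage V gametocytes with the serum-free one-step SaLSSA (1536-well): 72 h at 37 °C under low oxygen, then saponin lysis and MitoTracker Red CMXRos staining, with high-content imaging. Viability index = viable-object count divided by the plate mean of DMSO wells (0 = killed, about 1 = inactive).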

Row | SMILES | viability index
1 | CC(C)[C@H]1C(=O)N[C@H](c2cccc(Cl)c2)C/C=C/C[C@@H](C)Oc2ccccc2C(=O)N1C.CC(C)[C@H]1C(=O)N[C@H](c2cccc(Cl)c2)C/C=C\C[C@@H](C)Oc2ccccc2C(=O)N1C | 0.909 ± 0.08
2 | C[C@@H]1CN([C@H](C)CO)C(=O)c2c(c3ccccc3n2C)-c2ccccc2CO[C@H]1CN(C)Cc1cccc(C(F)(F)F)c1 | 0.914 ± 0.14
3 | C[C@H](CO)N1C[C@H](C)[C@@H](CN(C)C(=O)CN2CCOCC2)Oc2ncc(-c3ccncc3)cc2C1=O | 1.02 ± 0.021
4 | COc1cccc(NC(=O)Nc2ccc3c(c2)C(=O)N(C)C[C@H](OC)[C@H](C)CN[C@@H](C)CO3)c1 | 1 ± 0.026
5 | CS(=O)(=O)N1[C@H](C#N)[C@@H](c2ccc(-c3ccccc3F)cc2)[C@H]1CO | 1.08 ± 0.072
6 | O=C(C[C@@H]1CC[C@@H](NC(=O)C2CC2)[C@@H](CO)O1)Nc1ccccc1 | 0.97 ± 0.1
7 | COc1ccc([C@H]2C/C=C/C[C@H](C)Oc3ccccc3C(=O)N(C)[C@H](C(C)C)C(=O)N2)c(OC)c1.COc1ccc([C@H]2C/C=C\C[C@H](C)Oc3ccccc3C(=O)N(C)[C@H](C(C)C)C(=O)N2)c(OC)c1 | 1 ± 0.043
8 | CO[C@@H]1CN(C)C(=O)c2cc(NC(=O)NC(C)C)ccc2OC[C@H](C)N(Cc2ccccc2)C[C@@H]1C | 1.04 ± 0.052
9 | O=C(c1cnccn1)N1C[C@@H]2N[C@H](C1)[C@@H]2c1ccc(/C=C/c2ccccc2)cc1 | 1.05 ± 0.026
10 | Cc1noc(C)c1NC(=O)N1C[C@H](O)COC[C@@H]2O[C@@H](CC(=O)NCC3CC3)CC[C@H]21 | 1.03 ± 0.029
11 | O=S(=O)(c1ccccc1F)N1[C@@H]2CNC[C@H]1[C@@H]2c1ccc(/C=C/c2ccccc2)cc1 | 1.02 ± 0.099
12 | Cc1noc(C)c1S(=O)(=O)Nc1ccc2c(c1)C(=O)N([C@H](C)CO)C[C@H](C)[C@@H](CN(C)C(=O)Nc1cccc3ccccc13)OCCCC[C@H](C)O2 | 0.9 ± 0.043
13 | COc1ccccc1C#Cc1ccc2c(c1)[C@H]1NCC[C@H]1[C@@H](CO)N2 | 1.07 ± 0.016
14 | O=C(Nc1ccccc1)N1C[C@@H]2N[C@H](C1)[C@@H]2c1ccc(-c2ccccc2F)cc1 | 1.03 ± 0.08
15 | COc1ccc(S(=O)(=O)Nc2ccc3c(c2)OC[C@H](C)NC[C@H](C)[C@@H](OC)CN(C)C3=O)cc1 | 1.05 ± 0.098
16 | CC(C)[C@H]1C(=O)N[C@@H](c2cccc(Cl)c2)C/C=C/C[C@H](C)Oc2ccccc2C(=O)N1C.CC(C)[C@H]1C(=O)N[C@@H](c2cccc(Cl)c2)C/C=C\C[C@H](C)Oc2ccccc2C(=O)N1C | 0.988 ± 0.047
17 | CCC(=O)N1C[C@@H](O)COC[C@@H]2O[C@@H](CC(=O)NC)CC[C@H]21 | 0.941 ± 0.064
18 | CC(C)NC(=O)N(C)C[C@@H]1Oc2ccc(NC(=O)Cc3ccccc3)cc2CC(=O)N([C@@H](C)CO)C[C@H]1C | 0.949 ± 0.16
19 | COc1ccc(NC(=O)N(C)C[C@@H]2OCCCC[C@@H](C)Oc3ccc(NC(=O)c4ccncc4)cc3C(=O)N([C@H](C)CO)C[C@@H]2C)cc1 | 1.085 ± 0.0042
20 | COc1ccc(CN2C[C@]3(CN(C3)C(C)=O)c3c([C@H]2CO)n(C)c2cc(OC)ccc32)cc1 | 1.12 ± 0.071
21 | O=C(Nc1cccc(F)c1)N1C[C@H]2[C@@H](c3ccccc31)[C@H](CO)N2C(=O)Cc1ccccn1 | 0.989 ± 0.046
22 | COc1ccccc1CN1C[C@@H](C)[C@H](OC)CN(C)C(=O)c2cc(NC(=O)Nc3ccccc3OC)ccc2OC[C@H]1C | 1.02 ± 0.091
23 | O=C(c1cnccn1)N1CC(=O)N2[C@H](C1)[C@@H](c1ccc(-c3cccc(F)c3)cc1)[C@@H]2CO | 1.02 ± 0.012

Row | SMILES | viability index
24 | CO[C@@H]1CN(C)C(=O)c2ccc(NS(C)(=O)=O)cc2OC[C@@H](C)N(CC2CC2)C[C@H]1C | 1.14 ± 0.044
25 | COc1cccc(CNC(=O)C[C@@H]2CC[C@H]3[C@H](COc4ccc(NS(=O)(=O)c5ccccc5F)cc4C(=O)N3C)O2)c1 | 0.933 ± 0.042
26 | CNC[C@H]1Oc2ccc(NS(=O)(=O)c3ccc(OC)cc3)cc2C(=O)N([C@H](C)CO)C[C@@H]1C | 0.998 ± 0.062
27 | COc1ccc2c3c([nH]c2c1)[C@@H](CO)N(C[C@]31CN(C1)S(C)(=O)=O)C(=O)C1CCCCC1 | 1.03 ± 0.032
28 | O=C(c1cnccn1)N1CC(=O)N2[C@H](CO)[C@@H](c3ccc(/C=C/c4ccccc4)cc3)[C@H]2C1 | 1.04 ± 0.07
29 | CC(C)NC(=O)NCC[C@@H]1CC[C@H](NS(=O)(=O)c2ccc(Oc3ccccc3)cc2)[C@H](CO)O1 | 1.13 ± 0.038
30 | CN(C)C(=O)c1cccc(-c2cccc(-c3nc(C(=O)N4CCCCC4)cc4c3[C@@H](CCO)N([S@](=O)C(C)(C)C)C4)c2)c1 | 0.984 ± 0.033
31 | O=C(Cc1ccncc1)N1CC(=O)N2[C@@H](CO)[C@H](c3ccc(Br)cc3)[C@@H]2C1 | 1.03 ± 0.095
32 | C[C@@H]1CN([C@H](C)CO)C(=O)c2cc(NC(=O)CCCN(C)C)ccc2O[C@H]1CN(C)Cc1ccc(Cl)c(Cl)c1 | 1.05 ± 0.023
33 | O=C(Nc1cccc(F)c1)N1C[C@@H]2N[C@H](C1)[C@@H]2c1ccc(-c2cncnc2)cc1 | 1.044 ± 0.0046
34 | O=C1CCCCn2nncc2COC[C@H](Cc2ccccc2)N1 | 1.077 ± 0.002
35 | CNC[C@H]1OCc2ccccc2-c2ccccc2C(=O)N([C@@H](C)CO)C[C@@H]1C | 1.02 ± 0.093
36 | COc1cccc(C#Cc2ccc3c(c2)[C@H]2[C@H](CCN2C(=O)c2ccccc2F)[C@@H](CO)N3)c1 | 1.04 ± 0.06
37 | O=C(C1CC1)N1C[C@@H]2[C@H](c3ccccc31)[C@H](CO)N2C(=O)c1ccccc1 | 0.929 ± 0.048
38 | CN1c2ccc(-c3cccc(C#N)c3)cc2[C@@H]2[C@@H](CCN2C(=O)CN2CCOCC2)[C@@H]1CO | 1.08 ± 0.029
39 | C[C@H]1CN([C@@H](C)CO)C(=O)c2cc(C3=CCCC3)cnc2O[C@H]1CN(C)C(=O)Nc1ccc(C(F)(F)F)cc1 | 0.975 ± 0.063
40 | COc1ccc(C#Cc2cnc3c(c2)C(=O)N([C@H](C)CO)C[C@H](C)[C@H](CN(C)Cc2cccc(C)c2)O3)cc1OC | 0.945 ± 0.097
41 | C[C@H](CO)N1C[C@H](C)[C@@H](CN(C)C(=O)CCCN(C)C)OCCCC[C@H](C)Oc2ccc(NC(=O)Nc3ccc4c(c3)OCO4)cc2C1=O | 0.998 ± 0.067
42 | C[C@H]1CCCCO[C@H](CN(C)S(=O)(=O)c2ccc(Cl)cc2)[C@@H](C)CN([C@@H](C)CO)C(=O)c2cc(NC(=O)Nc3ccc(C(F)(F)F)cc3)ccc2O1 | 1.12 ± 0.13
43 | Cc1ccc(S(=O)(=O)N(C)C[C@H]2Oc3cc(C#CC4CCCC4)ccc3S(=O)(=O)N([C@@H](C)CO)C[C@H]2C)cc1 | 0.713 ± 0.03
44 | COCCNC(=O)[C@H]1[C@H](CO)[C@H]2Cn3c(cccc3=O)[C@@H]1N2S(=O)(=O)c1ccccc1C | 1.01 ± 0.065
45 | O=C(O)C[C@@H]1C[C@H]2c3cc(NC(=O)Cc4ccncc4)ccc3O[C@H]2[C@@H](CO)O1 | 1.02 ± 0.021
46 | COCCNC(=O)C[C@H]1CC[C@H]2[C@@H](COC[C@@H](O)CN2C(=O)c2cc(Cl)cc(Cl)c2)O1 | 1.03 ± 0.091

Row | SMILES | viability index
47 | O=C(CC(F)(F)F)N1C[C@@H]2[C@H](c3ccccc31)[C@H](CO)N2C(=O)C1CCCCC1 | 1.02 ± 0.019
48 | COc1ccccc1S(=O)(=O)N1CC[C@@H]2[C@@H](CO)N(C)c3ccc(-c4cccc(C#N)c4)cc3[C@@H]21 | 0.99 ± 0.043
49 | O=C(Cc1cccnc1)N1CC(=O)N2[C@H](CO)[C@@H](c3ccc(C#CC4CCCCC4)cc3)[C@H]2C1 | 1.04 ± 0.06
50 | N#C[C@@H]1N[C@H](CO)[C@H]1c1ccc(-c2cccc(F)c2)cc1 | 1.18 ± 0.088
51 | COCC(=O)Nc1ccc2c(c1)C(=O)N(C)C[C@@H](OC)[C@H](C)CN(CCc1ccccc1)[C@H](C)CO2 | 1.05 ± 0.042
52 | CC(C)NC(=O)N1CC[C@@H]2[C@H]1c1cc(-c3ccc(F)cc3)ccc1N(C)[C@@H]2CO | 1.05 ± 0.033
53 | CC(C)NC(=O)N1[C@@H](CO)[C@@H](c2ccccc2)C12CN(C(=O)c1ccccn1)C2 | 1.18 ± 0.038
54 | Cc1cccc(S(=O)(=O)N2CC[C@H]3[C@H](CO)Nc4ccc(-c5ccccc5F)cc4[C@H]32)c1 | 1.08 ± 0.023
55 | CC(C)NC(=O)Nc1ccc2c(c1)C(=O)N(C)[C@@H]1CC[C@H](CC(=O)NCc3ccc(F)cc3)O[C@@H]1CO2 | 1.11 ± 0.047
56 | O=C([C@H]1[C@H](CO)[C@H]2Cn3c(cccc3=O)[C@@H]1N2)N1CCc2ccccc2C1 | 1.11 ± 0.065
57 | CCCNC(=O)N1[C@H](C#N)[C@H](c2ccccc2-c2ccc(OC)cc2)[C@@H]1CO | 1.03 ± 0.1
58 | CO[C@H]1CN(C)C(=O)c2cc(NC(=O)Nc3ccccc3F)ccc2OC[C@H](C)N(CCC(F)(F)F)C[C@@H]1C | 1.05 ± 0.014
59 | COCC#Cc1ccc([C@H]2[C@H](CO)N3CCCCN(Cc4cccnc4)C[C@@H]23)cc1 | 0.966 ± 0.038
60 | C[C@H](CO)N1C[C@H](C)[C@@H](CN(C)C(=O)Nc2ccc(F)cc2)Oc2c(cccc2N(C)C)C1=O | 1 ± 0.058
61 | O=C(C[C@H]1CC[C@H](NC(=O)CN2CCOCC2)[C@H](CO)O1)NC1CCC1 | 1.13 ± 0.077
62 | Cc1noc(C)c1S(=O)(=O)Nc1ccc2c(c1)C(=O)N([C@@H](C)CO)C[C@@H](C)[C@H](CN(C)C(=O)NC1CCCCC1)O2 | 1.07 ± 0.021
63 | CO[C@H]1CN(C)C(=O)c2cc(NC(C)=O)ccc2OC[C@H](C)N(C(=O)Cc2ccccn2)C[C@@H]1C | 1.09 ± 0.12
64 | CNC[C@@H]1OCc2cn(nn2)CCCC(=O)N([C@@H](C)CO)C[C@@H]1C | 0.993 ± 0.035
65 | COCC#Cc1ccc([C@@H]2[C@H](CO)N3C(=O)CN(C(=O)C4CCCCC4)C[C@@H]23)cc1 | 1.087 ± 0.0032
66 | CN1C(=O)c2cc(NC(=O)c3cccc(F)c3)ccc2OC[C@H]2O[C@@H](CC(=O)NCC3CCCCC3)CC[C@@H]21 | 1.08 and 1.14
67 | N#C[C@H]1[C@H](c2ccccc2-c2ccccc2)[C@@H](CO)N1C(=O)Cc1ccncc1 | 1.06 ± 0.066
68 | C/C=C/c1ccc([C@H]2[C@H]3CN(S(=O)(=O)c4ccccc4)CC(=O)N3[C@H]2CO)cc1 | 1.03 ± 0.034
69 | C[C@@H]1CN([C@@H](C)CO)S(=O)(=O)c2ccc(C#CC3(O)CCCC3)cc2O[C@H]1CN(C)C(=O)Nc1cccc(F)c1 | 0.9968 ± 0.0021
